Source: the supplement of paper PMC8728848
This is one part of the list.

Legend:
Experiment in all cases: glycan array binding signal (z-score within array); higher = stronger binding
Conditions in all cases: glycan notation: IUPAC condensed, linker removed
[1] = molecular target: Gal(b1-4)GlcNAc(b1-3)Gal(b1-4)GlcNAc(b1-3)[Gal(b1-4)GlcNAc(b1-3)Gal(b1-4)GlcNAc(b1-6)]GalNAc
Outline: (§1)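 The binding signal is a Z-score computed within each array and averaged over linkers. Arrays of the same protein sequence at different concentrations or buffers were also averaged together. Data originate from 3228 arrays in the Consortium for Functional Glycomics database, kept only where the protein sequence was available.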

[2] = molecular target: Gal(b1-4)GlcNAc(b1-3)Gal(b1-4)GlcNAc(b1-6)[Gal(b1-3)]GalNAc
Outline: as §1

[3] = molecular target: Gal(b1-4)GlcNAc(b1-3)Gal(b1-4)[Fuc(a1-3)]GlcNAc(b1-3)Gal(b1-4)[Fuc(a1-3)]GlcNAc
Outline: as §1

[4] = molecular target: Gal(b1-4)GlcNAc(b1-3)GalNAc
Outline: as §1

[5] = molecular target: Gal(b1-4)GlcNAc(b1-3)[Fuc(a1-3)GlcNAc(b1-6)]Gal(b1-4)Glc
Outline: as §1

[6] = molecular target: Gal(b1-4)GlcNAc(b1-3)[Gal(b1-4)GlcNAc(b1-6)]Gal(b1-4)GlcNAc
Outline: as §1

[7] = molecular target: Gal(b1-4)GlcNAc(b1-3)[GlcNAc(b1-6)]Gal(b1-4)GlcNAc
Outline: as §1

[8] = molecular target: Gal(b1-4)GlcNAc(b1-6)Gal(b1-4)GlcNAc
Outline: as §1

[9] = molecular target: Gal(b1-4)GlcNAc(b1-6)GalNAc
Outline: as §1

[10] = molecular target: Gal(b1-4)GlcNAc(b1-6)[Gal(b1-3)]GalNAc
Outline: as §1

[11] = molecular target: Gal(b1-4)GlcNAc(b1-6)[Gal(b1-4)GlcNAc(b1-3)]GalNAc
Outline: as §1

[12] = molecular target: Gal(b1-4)GlcNAc6P
Outline: as §1

[13] = molecular target: Gal(b1-6)Gal
Outline: as §1

[14] = molecular target: Gal3S(b1-3)GalNAc
Outline: as §1

[15] = molecular target: Gal3S(b1-3)GlcNAc
Outline: as §1

[16] = molecular target: Gal3S(b1-3)[Fuc(a1-4)]GlcNAc
Outline: as §1

[17] = molecular target: Gal3S(b1-4)Glc
Outline: as §1

[18] = molecular target: Gal3S(b1-4)Glc6S
Outline: as §1

[19] = molecular target: Gal3S(b1-4)GlcNAc
Outline: as §1

[20] = molecular target: Gal3S(b1-4)[Fuc(a1-3)]Glc6S
Outline: as §1

[21] = molecular target: Gal3S(b1-4)[Fuc(a1-3)]GlcNAc
Outline: as §1

[22] = molecular target: Gal3S(b1-4)[Fuc(a1-3)]GlcNAc6S
Outline: as §1

[23] = molecular target: Gal3S4S(b1-4)GlcNAc
Outline: as §1

[24] = molecular target: Gal3S6S(b1-4)GlcNAc
Outline: as §1

[25] = molecular target: Gal3S6S(b1-4)GlcNAc6S
Outline: as §1

[26] = molecular target: Gal4S(b1-4)GlcNAc
Outline: as §1

[27] = molecular target: Gal4S6S(b1-4)GlcNAc
Outline: as §1

[28] = molecular target: Gal6P(b1-4)GlcNAc
Outline: as §1

[29] = molecular target: Gal6S(b1-3)GlcNAc
Outline: as §1

[30] = molecular target: Gal6S(b1-3)GlcNAc6S
Outline: as §1

[31] = molecular target: Gal6S(b1-4)Glc
Outline: as §1

[32] = molecular target: Gal6S(b1-4)Glc6S
Outline: as §1

[33] = molecular target: Gal6S(b1-4)GlcNAc
Outline: as §1

[34] = molecular target: Gal6S(b1-4)GlcNAc6S
Outline: as §1

[35] = molecular target: GalNAc(a1-3)Gal
Outline: as §1

[36] = molecular target: GalNAc(a1-3)GalNAc
Outline: as §1

[37] = molecular target: GalNAc(a1-3)GalNAc(b1-3)Gal(a1-4)Gal(b1-4)Glc
Outline: as §1

[38] = molecular target: GalNAc(a1-3)GalNAc(b1-3)Gal(a1-4)Gal(b1-4)GlcNAc
Outline: as §1

[39] = molecular target: GalNAc(b1-3)Gal
Outline: as §1

[40] = molecular target: GalNAc(b1-3)Gal(a1-4)Gal(b1-4)GlcNAc
Outline: as §1

[41] = molecular target: GalNAc(b1-3)Gal(a1-4)Gal(b1-4)GlcNAc(b1-3)Gal(b1-4)Glc
Outline: as §1

[42] = molecular target: GalNAc(b1-3)Gal(a1-6)Gal(b1-4)Glc
Outline: as §1

[43] = molecular target: GalNAc(b1-3)GalNAc
Outline: as §1

[44] = molecular target: GalNAc(b1-3)GlcNAc
Outline: as §1

[45] = molecular target: GalNAc(b1-4)Gal(b1-4)Glc
Outline: as §1

[46] = molecular target: GalNAc(b1-4)GlcNAc
Outline: as §1

[47] = molecular target: GalNAc(b1-4)GlcNAc(b1-2)Man
Outline: as §1

[48] = molecular target: GalNAc(b1-4)GlcNAc(b1-2)Man(a1-3)[GalNAc(b1-4)GlcNAc(b1-2)Man(a1-6)]Man(b1-4)GlcNAc(b1-4)GlcNAc
Outline: as §1

[49] = molecular target: GalNAc(b1-4)GlcNAc(b1-3)GalNAc(b1-4)GlcNAc
Outline: as §1

[50] = molecular target: GalNAc(b1-4)GlcNAc6S
Outline: as §1

[51] = molecular target: GalNAc(b1-6)GalNAc
Outline: as §1

[52] = molecular target: GalNAc3S(b1-4)GlcNAc
Outline: as §1

[53] = molecular target: GalNAc3S(b1-4)GlcNAc3S
Outline: as §1

[54] = molecular target: GalNAc3S(b1-4)[Fuc(a1-3)]GlcNAc
Outline: as §1

[55] = molecular target: GalNAc4S6S(b1-4)GlcNAc
Outline: as §1

[56] = molecular target: GalNAc6S(b1-4)GlcNAc
Outline: as §1

[57] = molecular target: Glc(a1-4)Glc
Outline: as §1

[58] = molecular target: Glc(a1-4)Glc(a1-4)Glc(a1-4)Glc
Outline: as §1

[59] = molecular target: Glc(a1-6)Glc(a1-6)Glc
Outline: as §1

[60] = molecular target: Glc(a1-6)Glc(a1-6)Glc(a1-6)Glc
Outline: as §1

[61] = molecular target: Glc(b1-4)Glc
Outline: as §1

[62] = molecular target: Glc(b1-6)Glc
Outline: as §1

[63] = molecular target: GlcA(b1-3)Gal
Outline: as §1

[64] = molecular target: GlcA(b1-3)GlcNAc
Outline: as §1

[65] = molecular target: GlcA(b1-6)Gal
Outline: as §1

[66] = molecular target: GlcA3S(b1-3)Gal(b1-4)GlcNAc(b1-2)Man
Outline: as §1

[67] = molecular target: GlcA3S(b1-3)Gal(b1-4)GlcNAc(b1-3)Gal(b1-4)Glc
Outline: as §1

[68] = molecular target: GlcNAc(a1-3)Gal(b1-4)GlcNAc
Outline: as §1

[69] = molecular target: GlcNAc(a1-4)Gal(b1-3)GlcNAc
Outline: as §1

[70] = molecular target: GlcNAc(a1-4)Gal(b1-4)GalNAc
Outline: as §1

[71] = molecular target: GlcNAc(a1-4)Gal(b1-4)GlcNAc
Outline: as §1

[72] = molecular target: GlcNAc(a1-4)Gal(b1-4)GlcNAc(b1-3)Gal(b1-4)Glc
Outline: as §1

[73] = molecular target: GlcNAc(a1-4)Gal(b1-4)GlcNAc(b1-3)Gal(b1-4)GlcNAc
Outline: as §1

[74] = molecular target: GlcNAc(a1-4)Gal(b1-4)GlcNAc(b1-3)Gal(b1-4)GlcNAc(b1-3)Gal(b1-4)GlcNAc
Outline: as §1

[75] = molecular target: GlcNAc(a1-4)Gal(b1-4)GlcNAc(b1-3)Gal(b1-4)[Fuc(a1-3)]GlcNAc(b1-3)Gal(b1-4)[Fuc(a1-3)]GlcNAc
Outline: as §1

B1: SP16664B-bot-474-25-474 (Bacteroides ovatus) (protein)
chain: CEEDIEIGNKIDESSYLASTQLSGLLLDENTNKNSSVIELRNNEYSTNVVFRLSKLPQKGVDVQIAVEESYAAIYNTIHETDFEVFPAANVKIANNGTFVLAPDDKVTPSVKVTLTAFDGMEEDKTYIVPLTVTSSTEGVTFTETSKHMVLLVQDYRNKPNTNKGEDAVQTVLYFEVNDTNPLNALEFLTESGKYFFDHIVLFAANINWDPEKQRVYLANNENVQFLLDNNDKYLQPLRKAGMKIIISILGNHDEAGVAQLSDMGAREFARELAAYCRAYNLDGVAFDDEYSNSPDLSNPWLASPSAYAGSRLMYECKAVMPEKIVSLYNLGNMYSSSLQVIDGIEPGQYCDYAVADYGGAAGPGTGMTLKQCAGMSIELRRGSGNSSESTARSRKEAGYGYYMFFALDPSLYGSQVYRCQSVCKGLYDETLVYPSYYYKKNSTEREAIN
- glycan array binding signal (z-score) [1]: 1.49
- glycan array binding signal (z-score) [2]: 0.334
- glycan array binding signal (z-score) [3]: -0.415
- glycan array binding signal (z-score) [4]: -0.041
- glycan array binding signal (z-score) [5]: -0.168
- glycan array binding signal (z-score) [6]: 0.225
- glycan array binding signal (z-score) [7]: 0.038
- glycan array binding signal (z-score) [8]: 0.107
- glycan array binding signal (z-score) [9]: 0.318
- glycan array binding signal (z-score) [10]: -0.125
- glycan array binding signal (z-score) [11]: -0.108
- glycan array binding signal (z-score) [12]: -0.423
- glycan array binding signal (z-score) [13]: -0.141
- glycan array binding signal (z-score) [14]: 0.095
- glycan array binding signal (z-score) [15]: 0.167
- glycan array binding signal (z-score) [16]: -0.009
- glycan array binding signal (z-score) [17]: 0.626
- glycan array binding signal (z-score) [18]: 0.344
- glycan array binding signal (z-score) [19]: -0.393
- glycan array binding signal (z-score) [20]: -0.231
- glycan array binding signal (z-score) [21]: 0.068
- glycan array binding signal (z-score) [22]: 0.545
- glycan array binding signal (z-score) [23]: 0.303
- glycan array binding signal (z-score) [24]: 0.516
- glycan array binding signal (z-score) [25]: -0.535
- glycan array binding signal (z-score) [26]: -0.032
- glycan array binding signal (z-score) [27]: -0.008
- glycan array binding signal (z-score) [28]: 0.641
- glycan array binding signal (z-score) [29]: 0.118
- glycan array binding signal (z-score) [30]: 0.522
- glycan array binding signal (z-score) [31]: -0.453
- glycan array binding signal (z-score) [32]: 0.797
- glycan array binding signal (z-score) [33]: -0.557
- glycan array binding signal (z-score) [34]: -0.289
- glycan array binding signal (z-score) [35]: -0.082
- glycan array binding signal (z-score) [36]: -0.365
- glycan array binding signal (z-score) [37]: -0.271
- glycan array binding signal (z-score) [38]: 0.035
- glycan array binding signal (z-score) [39]: 0.373
- glycan array binding signal (z-score) [40]: -0.347
- glycan array binding signal (z-score) [41]: 0.947
- glycan array binding signal (z-score) [42]: -0.265
- glycan array binding signal (z-score) [43]: -0.311
- glycan array binding signal (z-score) [44]: -0.011
- glycan array binding signal (z-score) [45]: 0.293
- glycan array binding signal (z-score) [46]: -0.424
- glycan array binding signal (z-score) [47]: -0.234
- glycan array binding signal (z-score) [48]: 0.818
- glycan array binding signal (z-score) [49]: -0.437
- glycan array binding signal (z-score) [50]: -0.249
- glycan array binding signal (z-score) [51]: -0.071
- glycan array binding signal (z-score) [52]: -0.167
- glycan array binding signal (z-score) [53]: -0.554
- glycan array binding signal (z-score) [54]: -0.102
- glycan array binding signal (z-score) [55]: -0.156
- glycan array binding signal (z-score) [56]: -0.167
- glycan array binding signal (z-score) [57]: -0.119
- glycan array binding signal (z-score) [58]: 0.723
- glycan array binding signal (z-score) [59]: -0.366
- glycan array binding signal (z-score) [60]: 0.206
- glycan array binding signal (z-score) [61]: 0.781
- glycan array binding signal (z-score) [62]: -0.432
- glycan array binding signal (z-score) [63]: -0.073
- glycan array binding signal (z-score) [64]: 0.148
- glycan array binding signal (z-score) [65]: -0.616
- glycan array binding signal (z-score) [66]: -0.295
- glycan array binding signal (z-score) [67]: 0.34
- glycan array binding signal (z-score) [68]: -0.321
- glycan array binding signal (z-score) [69]: -0.21
- glycan array binding signal (z-score) [70]: 0.293
- glycan array binding signal (z-score) [71]: -0.527
- glycan array binding signal (z-score) [72]: -0.223
- glycan array binding signal (z-score) [73]: 0.233
- glycan array binding signal (z-score) [74]: -0.159
- glycan array binding signal (z-score) [75]: 4.58
